5 molecules from US20110319597A1 (CAPHALON AUSTRALIA, published 2011) can be followed below.

To fix the notation:
B1: TNFα dAb Fc variant Y49H (Fc fusion, name in Kabat numbering)
chain: DIQMTQSPSSLSASVGDRVTITCRASQAIDSYLHWYQQKPGKAPKLLIHSASNLETGVPSRFSGSGSGTDFTLTISSLLPEDFATYYCQQVVWRPFTFGQGTKVEIKRV[human IgG1 Fc with changes left out]
B2: TNFα dAb Fc variant Y49L (Fc fusion, name in Kabat numbering)
chain: DIQMTQSPSSLSASVGDRVTITCRASQAIDSYLHWYQQKPGKAPKLLILSASNLETGVPSRFSGSGSGTDFTLTISSLLPEDFATYYCQQVVWRPFTFGQGTKVEIKRV[human IgG1 Fc with changes left out]
B3: TNFα dAb Fc variant Y49Q (Fc fusion, name in Kabat numbering)
chain: DIQMTQSPSSLSASVGDRVTITCRASQAIDSYLHWYQQKPGKAPKLLIQSASNLETGVPSRFSGSGSGTDFTLTISSLLPEDFATYYCQQVVWRPFTFGQGTKVEIKRV[human IgG1 Fc with changes left out]
B4: TNFα dAb Fc variant Y49S (Fc fusion, name in Kabat numbering)
chain: DIQMTQSPSSLSASVGDRVTITCRASQAIDSYLHWYQQKPGKAPKLLISSASNLETGVPSRFSGSGSGTDFTLTISSLLPEDFATYYCQQVVWRPFTFGQGTKVEIKRV[human IgG1 Fc with changes left out]
B5: TNFα dAb Fc variant Y49K (Fc fusion, name in Kabat numbering)
chain: DIQMTQSPSSLSASVGDRVTITCRASQAIDSYLHWYQQKPGKAPKLLIKSASNLETGVPSRFSGSGSGTDFTLTISSLLPEDFATYYCQQVVWRPFTFGQGTKVEIKRV[human IgG1 Fc with changes left out]

The first test deals with recombinant human TNFα (human, UniProt P01375 partial chain). Kind of test: cell-based or functional assay.
B1: the Standardized EC50, L929 neutralization assay (5-point) was 0.731 µg/mL.

Consider B2, for which the Standardized EC50, L929 neutralization assay (5-point) was 15.8 µg/mL.

In the case of B3, the Standardized EC50, L929 neutralization assay (5-point) is 590 µg/mL.

Take B4: the Standardized EC50, L929 neutralization assay (5-point) was 13.2 µg/mL.

On to B5, for which the Standardized EC50, L929 neutralization assay (5-point) came to 1570 µg/mL.

The target in another test is T1, recombinant human TNFα (CytoLab) (human, UniProt P01375 partial chain).
T1 construct: coated on the ELISA plate at 1 µg/ml; also called Tumour necrosis factor alpha
Kind of test: ELISA on coated human TNFα. On the technique in general: In an ELISA, binding on a coated surface is turned into a signal by an enzyme label.
B1: the “A450 (AU)” value turned out to be 1.12 AU.

Turning to B2, the “A450 (AU)” value came to 0.592 AU.

With B3, the “A450 (AU)” value was determined as 0.242 AU.

As for B4, the “A450 (AU)” value amounted to 1.15 AU.

As for B5, the “A450 (AU)” value came to 0.174 AU.
